Reference: the antibiotic and cytotoxicity screens of Wong et al. (2023)
This is one part of the list.

How the values were obtained:
[1] = system: HSkMC (human skeletal muscle cells); assay: cytotoxicity call (relative viability < 0.9); conditions: 10 µM
[2] = system: HepG2; assay: cytotoxicity call (relative viability < 0.9); conditions: 10 µM
[3] = system: S. aureus RN4220; assay: growth inhibition call (relative growth <= 0.2); conditions: 50 µM

| Compound | cytotoxicity call [1] | cytotoxicity call [2] | growth inhibition call [3] |
| --- | --- | --- | --- |
| C[C@@H]1CN([C@@H](C)CO)C(=O)c2cc(Br)cnc2O[C@H]1CN(C)C(=O)Nc1ccc(F)cc1 | inactive | inactive | inactive |
| CCCNC(=O)N1C[C@H](O)COC[C@H]2O[C@H](CC(=O)N3CCN(C)CC3)CC[C@@H]21 | inactive | inactive | inactive |
| C[C@@H]1CCCCO[C@@H](CN(C)Cc2ccc(Cl)c(Cl)c2)[C@H](C)CN([C@@H](C)CO)C(=O)c2cc(N(C)C)ccc2O1 | inactive | inactive | inactive |
| CNc1ncnc2c1ncn2[C@@H]1O[C@H](CO)[C@@H](O)[C@H]1O | inactive | inactive | inactive |
| O=C(C[C@@H]1CC[C@H](NC(=O)C2CC2)[C@@H](CO)O1)NCCCN1CCOCC1 | inactive | inactive | inactive |
| C[C@@H]1CN([C@H](C)CO)C(=O)Cc2cc(NS(=O)(=O)c3cccs3)ccc2O[C@H]1CN(C)C(=O)Nc1cccc2ccccc12 | inactive | inactive | inactive |
| C[C@H](CO)N1C[C@H](C)[C@@H](CN(C)S(C)(=O)=O)Oc2ccc(NS(=O)(=O)c3ccc(F)cc3)cc2C1=O | inactive | inactive | inactive |
| O=C1NC(=O)C(c2cnc3ccccn23)=C1c1cn2c3c(cc(F)cc13)CN(C(=O)N1CCCCC1)CC2 | inactive | active | inactive |
| O=C(O)[C@H](O)Cc1ccccc1 | inactive | inactive | inactive |
| C=CC[C@@H](CC(=O)N(CCO)Cc1ccccc1)C(=O)N[C@H](COC(=O)[C@H](CC=C)CC(=O)OC(C)(C)C)Cc1c[nH]c2ccccc12 | inactive | inactive | inactive |
| C[C@H]1CN([C@@H](C)CO)C(=O)Cc2cc(NC(=O)Cc3ccccc3)ccc2O[C@@H]1CN(C)S(=O)(=O)c1cccs1 | inactive | inactive | inactive |
| Cc1noc(C)c1S(=O)(=O)Nc1cccc2c1O[C@H](CN(C)S(=O)(=O)c1ccccc1)[C@H](C)CN([C@H](C)CO)C2=O | inactive | inactive | inactive |
| CC1(C)CN(C(=O)Cn2nccn2)C[C@]1(C)O | inactive | inactive | inactive |
| NC[C@H](c1ccco1)N1CCCCCC1 | inactive | inactive | inactive |
| C[C@@H]1CN([C@H](C)CO)C(=O)c2cc(NS(=O)(=O)c3ccc(F)cc3)ccc2O[C@@H](C)CCCCO[C@H]1CN(C)Cc1ccc2c(c1)OCO2 | inactive | inactive | inactive |
| CNC[C@@H]1OCCCC[C@H](C)Oc2ccc(NS(=O)(=O)c3cn(C)cn3)cc2C(=O)N([C@@H](C)CO)C[C@H]1C | inactive | inactive | inactive |
| CCN1CCN(Cc2ccc(C(=O)Nc3ccc(C)c(Oc4ccc5c(c4)CC(=O)N5)c3)cc2C(F)(F)F)CC1 | active | active | inactive |
| CO[C@@H]1CN(C)C(=O)c2ccc(NS(=O)(=O)CC(F)(F)F)cc2OC[C@@H](C)N(Cc2ccccn2)C[C@H]1C | inactive | inactive | inactive |
| C[C@H](CO)N1C[C@H](C)[C@H](CN(C)S(=O)(=O)c2cccs2)Oc2ncc(Br)cc2C1=O | inactive | inactive | inactive |
| COc1ccccc1-c1ccc2c(c1)O[C@@H](CN(C)C(=O)c1cccnc1)[C@H](C)CN([C@H](C)CO)S2(=O)=O | inactive | inactive | inactive |
| CN(C)CC(=O)N[C@@H]1CC[C@H](CC(=O)O)O[C@@H]1CO | inactive | inactive | inactive |

| Compound | cytotoxicity call [1] | cytotoxicity call [2] | growth inhibition call [3] |
| --- | --- | --- | --- |
| C=CCC[C@H](Cc1ccc(F)cc1)C(=O)OC[C@@H](NC(=O)[C@@H](CC=C)CC(=O)N[C@@H](CO)Cc1ccccc1)C(C)(C)C | inactive | active | inactive |
| N=C(N)NCCC[C@@H](NC(=O)[C@@H](N)Cc1ccc(O)cc1)C(=O)O | inactive | inactive | inactive |
| CCCN(C)C[C@H]1OCCCC[C@H](C)Oc2ccc(NC(=O)Cc3ccccc3)cc2C(=O)N([C@@H](C)CO)C[C@H]1C | inactive | inactive | inactive |
| CCS(=O)(=O)Nc1ccc2c(c1)C(=O)N(C)[C@H]1CC[C@H](CC(=O)N3CCN(C)CC3)O[C@H]1CO2 | inactive | inactive | inactive |
| COc1ccccc1NC(=O)N(C)C[C@@H]1Oc2ncc(Br)cc2C(=O)N([C@@H](C)CO)C[C@H]1C | inactive | inactive | inactive |
| C[C@H](CO)N1C[C@H](C)[C@@H](CN(C)S(C)(=O)=O)Oc2ccc(NC(=O)CCN3CCOCC3)cc2C1=O | inactive | inactive | inactive |
| CN(C)Cc1cn(CC[C@H]2CC[C@@H](NC(=O)Cc3cccnc3)[C@H](CO)O2)nn1 | inactive | inactive | inactive |
| Cc1noc(C)c1NC(=O)Nc1ccc2c(c1)C(=O)N([C@H](C)CO)C[C@@H](C)[C@H](CN(C)C(=O)Nc1cccc3ccccc13)OCCCC[C@H](C)O2 | inactive | inactive | inactive |
| C[C@@H]1CCCCO[C@H](CN(C)S(C)(=O)=O)[C@@H](C)CN([C@H](C)CO)C(=O)c2cc(NS(C)(=O)=O)ccc2O1 | inactive | inactive | inactive |
| Cc1ccc(C(N)=O)cc1N | inactive | inactive | inactive |
| COc1ccc(S(=O)(=O)N(C)C[C@H]2Oc3ccc(NC(=O)Nc4c(C)noc4C)cc3C(=O)N([C@@H](C)CO)C[C@H]2C)cc1 | inactive | inactive | inactive |
| COc1ccc(CN(C)C[C@H]2Oc3c(NC(=O)c4cnccn4)cccc3C(=O)N([C@H](C)CO)C[C@@H]2C)cc1 | inactive | inactive | inactive |
| C[C@H](NC(=O)C[C@@H]1CC[C@H](NC(=O)CN2CCOCC2)[C@@H](CO)O1)c1ccccc1 | inactive | inactive | inactive |
| O=C(O)C=CC(=O)O.OCCOCCN1CCN(C2=Nc3ccccc3Sc3ccccc32)CC1 | inactive | inactive | inactive |
| C[C@H]1CN([C@@H](C)CO)C(=O)CCCn2nncc2CO[C@@H]1CN(C)S(=O)(=O)c1cccc(C#N)c1 | inactive | inactive | inactive |
| C[C@@H]1CN([C@H](C)CO)C(=O)c2cc(Br)cnc2O[C@H]1CN(C)C(=O)Nc1ccc2c(c1)OCO2 | inactive | inactive | inactive |
| CN1CCN(C(=O)C[C@@H]2CC[C@H]3[C@@H](COC[C@@H](O)CN3S(=O)(=O)c3cccc(F)c3)O2)CC1 | inactive | inactive | inactive |
| C[C@@H]1CCCCO[C@@H](CN(C)Cc2ccc3c(c2)OCO3)[C@H](C)CN([C@@H](C)CO)C(=O)c2cc(NS(=O)(=O)c3ccc(Cl)cc3)ccc2O1 | inactive | inactive | inactive |
| C[C@@H]1CN([C@@H](C)CO)C(=O)c2cc(NS(=O)(=O)c3ccccc3)ccc2O[C@H]1CN(C)Cc1ccc(Cl)c(Cl)c1 | inactive | inactive | inactive |
| C[C@@H]1CCCCO[C@@H](CN(C)Cc2ccc(C(=O)O)cc2)[C@H](C)CN([C@@H](C)CO)C(=O)c2cc(NC(=O)Nc3cccc4ccccc34)ccc2O1 | inactive | inactive | inactive |
